According to patent US7414110B2, “Human calcium channel compositions and methods” (Merck & Co., Inc., priority 1990, dated 2008):

Key:
[1] = target: T1, human neuronal calcium channel α1D, α2 and β1 subunits (Homo sapiens, UniProt Q01668, S1346F/Y1433H); format: cell-based; set-up: Portions of these partial cDNA clones were ligated to generate a full-length α1D cDNA in a eukaryotic expression vector; expressed in transfected cells; host or cells: HEK 293 cells (ATCC CRL1573), transient
[2] = target: T1, human neuronal calcium channel α1D, α2 and β1 subunits; format: cell-based; set-up: Portions of these partial cDNA clones were ligated to generate a full-length α1D cDNA in a eukaryotic expression vector; expressed in transfected cells; conditions: Bay K 8644 1 μM

| Structure (SMILES) | block of ~50 pA inward barium current [1] | largest inward barium current [1] [pA] | magnitude of inward barium current [1] | tail currents [1] | tail current [2] |
| --- | --- | --- | --- | --- | --- |
| [Cd] [cadmium] | nearly completely blocked |  |  |  |  |
| COC(=O)C1=C(C)NC(C)=C([N+](=O)[O-])C1c1ccccc1C(F)(F)F (centres unmarked) [Bay K 8644] |  | ~160 | significantly enhanced | Pronounced tail currents | augmented and prolonged tail current |
